The results in this text go back to the supplement of paper PMC12297408.

Counter-ions that a name gives are not always drawn. The whole screen tested about 1,300 compounds, of which about 40 (3%) showed activity. This is one part of the list.

For this experiment, the system named is Plasmodium falciparum NF54/iGP1_RE9H ulg8 stage V gametocytes. The experiment is described as follows: gametocyte viability (luciferase signal relative to DMSO control) (% of DMSO control); higher = less gametocytocidal activity, active = 50 or less. The conditions noted are these: exposure time: 72 h. In short, it runs like this:
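NF54/iGP1_RE9Hulg8 stage V gametocytes (day 12; ~2.5% gametocytemia, 3% hematocrit) in medium with 0.5% Albumax II were added to 96-well plates of nanolitre-spotted compounds (10 mM DMSO stocks), giving 10 µM or 1 µM, one well each. Plates were incubated 72 h at 37 °C. Then 90 µl was mixed with 10 µl D-luciferin (30 mg/ml) and luminescence was read on an IVIS Lumina II. Viability is relative to the mean of plate DMSO vehicle controls.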

For the compound `CO[C@H]1/C=C/O[C@@]2(C)Oc3c(C)c(O)c4c(O)c(c5c(nc6cc(C)ccn65)c4c3C2=O)NC(=O)/C(C)=C\C=C\[C@H](C)[C@H](O)[C@@H](C)[C@@H](O)[C@@H](C)[C@H](OC(C)=O)[C@@H]1C` [Rifaximin], the gametocyte viability was inactive: 91.3 (concentration: 1 µM) and inactive: 89 (concentration: 10 µM).
In the case of `Cc1cc(O)c(C(=O)N[C@@H](C(=O)N[C@@H]2C(=O)N3C(C(=O)O)=C(CSc4nnnn4C)CS[C@H]23)c2ccc(O)cc2)cn1` [Cefpiramide], the gametocyte viability reads like this: (concentration: 1 µM) inactive: 78.6; (concentration: 10 µM) inactive: 80.2.
As for `CC(=O)O[C@]1(C(C)=O)CC[C@H]2[C@@H]3C=C(Cl)C4=CC(=O)CC[C@]4(C)[C@H]3CC[C@@]21C` [Chlormadinone acetate], the gametocyte viability by setting is: (concentration: 1 µM) inactive: 87.4; (concentration: 10 µM) inactive: 88.4.
Taken in the same sequence, the figures for `CCN(CC)C(C)CN1c2ccccc2Sc2ccccc21` (stereo not given) [Ethopropazine hydrochloride] were inactive: 87.8 and inactive: 90.3.
`CCCNC(=O)NS(=O)(=O)c1ccc(Cl)cc1` [Chlorpropamide]: the gametocyte viability is, setting by setting: (concentration: 1 µM) inactive: 75.7; (concentration: 10 µM) inactive: 83.9.
Turning to `CN(C)C(=N)NC(=N)N` [Metformin hydrochloride], the gametocyte viability runs as follows: (concentration: 1 µM) inactive: 78.6; (concentration: 10 µM) inactive: 84.3.
As to `NCCCCCC(=O)O` [Aminocaproic acid], the gametocyte viability by setting is: (concentration: 1 µM) inactive: 91; (concentration: 10 µM) inactive: 96.7.
Regarding `CNCCc1ccccn1` [Betahistine mesylate], the gametocyte viability is, setting by setting: (concentration: 1 µM) inactive: 83.9; (concentration: 10 µM) inactive: 94.8.
In the case of `CC=CC(=O)N(CC)c1ccccc1C` [Crotamiton], the gametocyte viability is, setting by setting: (concentration: 1 µM) inactive: 94.6; (concentration: 10 µM) inactive: 87.
As to `Nc1nc2c(ncn2COC(CO)CO)c(=O)[nH]1` [Ganciclovir], the gametocyte viability was inactive: 86.3 (concentration: 1 µM) and inactive: 86.6 (concentration: 10 µM).
Turning to `O=C(c1ccc(F)cc1)C1CCN(CCn2c(=O)[nH]c3ccccc3c2=O)CC1` [Ketanserin tartrate hydrate], the gametocyte viability (concentration: 1 µM) is inactive: 94.5 and the gametocyte viability (concentration: 10 µM) is inactive: 69.
In the case of `CCN(CC)C(=O)c1ccc(O)c(OC)c1` [Ethamivan], the gametocyte viability reads like this: (concentration: 1 µM) inactive: 85.4; (concentration: 10 µM) inactive: 85.4.
For the compound `CN(CCCN1c2ccccc2CCc2ccccc21)CC(=O)c1ccc(Cl)cc1` [Lofepramine], the gametocyte viability is inactive: 81.1 (concentration: 1 µM) and inactive: 81.5 (concentration: 10 µM).
Consider `CN(C)CCOC(c1ccccc1)c1ccccc1.Cn1c(=O)c2[nH]c(Cl)nc2n(C)c1=O` [Dimenhydrinate], for which the gametocyte viability is, setting by setting: (concentration: 1 µM) inactive: 89; (concentration: 10 µM) inactive: 94.
With `O=C1NCC2(CCN(CCc3ccccc3)CC2)O1` [Fenspiride hydrochloride], the gametocyte viability runs as follows: (concentration: 1 µM) inactive: 90.1; (concentration: 10 µM) inactive: 90.5.
Turning to `Clc1ccc2c(c1)CCc1cccnc1C2=C1CCNCC1` [Desloratadine], the gametocyte viability reads like this: (concentration: 1 µM) inactive: 87.5; (concentration: 10 µM) inactive: 81.2.
In the case of `Cc1[nH]cnc1CN1CCc2c(c3ccccc3n2C)C1=O` [Alosetron hydrochloride], the gametocyte viability is, setting by setting: (concentration: 1 µM) inactive: 91.8; (concentration: 10 µM) inactive: 95.6.
On to `CCCOc1ccc2[nH]c(NC(=O)OC)nc2c1` [Oxibendazol], for which the gametocyte viability was inactive: 84.4 (concentration: 1 µM) and inactive: 88.1 (concentration: 10 µM).
`Nc1ncnc2c1ncn2[C@@H]1O[C@H](CO)[C@@H](O)[C@@H]1O` [Vidarabine]: the gametocyte viability (concentration: 1 µM) was inactive: 93.3 and the gametocyte viability (concentration: 10 µM) was inactive: 92.1.
`C[C@@](Cc1ccc(O)c(O)c1)(NN)C(=O)O` [Carbidopa]: the gametocyte viability is, setting by setting: (concentration: 1 µM) inactive: 84.1; (concentration: 10 µM) inactive: 81.6.
As for `CCOc1nc2cccc(C(=O)O)c2n1Cc1ccc(-c2ccccc2-c2nnn[nH]2)cc1` [Candesartan], the gametocyte viability (concentration: 1 µM) is inactive: 90 and the gametocyte viability (concentration: 10 µM) was inactive: 88.
Regarding `O=C1CC[C@@H](C(=O)N2CSC[C@H]2C(=O)O)N1` [Pidotimod], the gametocyte viability (concentration: 1 µM) is inactive: 83.8 and the gametocyte viability (concentration: 10 µM) is inactive: 81.2.
Take `c1ccc(-c2ccc(C(c3ccccc3)n3ccnc3)cc2)cc1` (stereo not given) [Bifonazole]: the gametocyte viability (concentration: 1 µM) was inactive: 82.5 and the gametocyte viability (concentration: 10 µM) was inactive: 82.7.
Taken in the same sequence, the figures for `Oc1c(Cl)cc(Cl)c2cccnc12` [Chloroxine] were inactive: 83.4 and inactive: 84.2.
As to `CN(C)CCC(c1ccc(Br)cc1)c1ccccn1` (stereo not given) [Brompheniramine maleate], the gametocyte viability by setting is: (concentration: 1 µM) inactive: 87; (concentration: 10 µM) inactive: 85.1.
`CC(=O)OC[C@H]1O[C@@H]([S-])[C@H](OC(C)=O)[C@@H](OC(C)=O)[C@@H]1OC(C)=O.CCP(CC)CC.[Au+]` [Auranofin]: the gametocyte viability was inactive: 82.6 (concentration: 1 µM) and active: 3.03 (concentration: 10 µM).
Regarding `CCC1(c2ccccc2)C(=O)NCNC1=O` [Primidone], the gametocyte viability (concentration: 1 µM) is inactive: 88.9 and the gametocyte viability (concentration: 10 µM) is inactive: 86.1.
Turning to `C[C@H]1O[C@H](O[C@H]2[C@H](O)[C@@H](O)[C@@H](O[C@@H]([C@H](O)[C@@H](O)C=O)[C@H](O)CO)O[C@@H]2CO)[C@H](O)[C@@H](O)[C@@H]1N[C@H]1C=C(CO)[C@@H](O)[C@H](O)[C@H]1O` [Acarbose], the gametocyte viability is, setting by setting: (concentration: 1 µM) inactive: 80.6; (concentration: 10 µM) inactive: 83.5.
On to `Cn1c(=O)c2c(ncn2CC2OCCO2)n(C)c1=O` [Doxofylline], for which the gametocyte viability by setting is: (concentration: 1 µM) inactive: 86.6; (concentration: 10 µM) inactive: 86.7.
`CN1CCN(CC(=O)N2c3ccccc3C(=O)Nc3cccnc32)CC1` [Pirenzepine dihydrochloride]: the gametocyte viability was inactive: 86.5 (concentration: 1 µM) and inactive: 83.3 (concentration: 10 µM).
